Experimental findings from a collection of fitness landscapes (doi:10.1126/science.1257360) are described below.

The other results are listed elsewhere or left out. Bounds are passed on as bounds.

B1: PhoQ; a variant is named by its letters at X, in order, P23837 (parent)
chain: MKKLLRLFFPLSLRVRFLLATAAVVLVLSLAYGMVALIGYSVSFDKTTFRLLRGESNLFYTLAKWENNKLHVELPENIDKQSPTMTLIYDENGQLLWAQRDVPWLMKMIQPDWLKSNGFHEIEADVNDTSLLLSGDHSIQQQLQEVREDDDDAEMTHSVAVNVYPATSRMPKLTIVVVDTIPVELKSSYMVWSWFIYVLSANLLLVIPLLWVAAWWSLRPIEALAKEVRELEEHNRELLNPATTRELTSLVRNLNRLLKSERERYDKYRTTLTDLTHSLKTPLXXLQXXLRSLRSEKMSVSDAEPVMLEQISRISQQIGYYLHRASMRGGTLLSRELHPVAPLLDNLTSALNKVYQRKGVNISLDISPEISFVGEQNDFVEVMGNVLDNACKYCLEFVEISARQTDEHLYIVVEDDGPGIPLSKREVIFDRGQRVDTLRPGQGVGLAVAREITEQYEGKIVAGESMLGGARMEVIFGRQHSAPKDE

Variants of B1 are the subject of the assay. In words: enrichment ratio after two sorts for PhoP signalling (ratio (wild type AVST 3.29)); higher = more functional. Conditions: with PhoP (E. coli).
On to PSMV, for which the enrichment ratio is ≤ 0.25.
In the case of KFWQ, the enrichment ratio was ≤ 0.25.
Turning to KYQW, the enrichment ratio was ≤ 0.25.
For MYWV, the enrichment ratio was ≤ 0.25.
PTRS: the enrichment ratio is ≤ 0.25.
Consider MGSF, for which the enrichment ratio was ≤ 0.25.
For the variant ASDP, the enrichment ratio was ≤ 0.25.
Then VTDS, with ≤ 0.25; and ITIN, with ≤ 0.25.
For the variant LCDV, the enrichment ratio was ≤ 0.25.
As to FIKL, the enrichment ratio is ≤ 0.25.
Then DKGF, with ≤ 0.25; and SHQI, with ≤ 0.25.
Then PEMI, with ≤ 0.25; and KVPS, with ≤ 0.25.
Consider VWAP, for which the enrichment ratio was ≤ 0.25.
Regarding LFLT, the enrichment ratio was ≤ 0.25.
The same measure for FLTV: ≤ 0.25; for WADI: ≤ 0.25; for DLFH: ≤ 0.25.
Take THSE: the enrichment ratio worked out at 3.83.
In the case of FPTG, the enrichment ratio was ≤ 0.25.
With AKFK, the enrichment ratio was ≤ 0.25.
The same measure for KSNI: ≤ 0.25.
In the case of DKSP, the enrichment ratio was ≤ 0.25.
As to IDDC, the enrichment ratio was ≤ 0.25.
Then VSET, with ≤ 0.25; and YHKH, with ≤ 0.25; and RHLC, with ≤ 0.25.
As to WYFL, the enrichment ratio was ≤ 0.25.
As to DKLA, the enrichment ratio is ≤ 0.25.
With FDYE, the enrichment ratio is ≤ 0.25.
Then ATNY, with 5.32.
With QTMF, the enrichment ratio was ≤ 0.25.
Then WKMM, with ≤ 0.25; and KPHI, with ≤ 0.25; and GEMH, with ≤ 0.25.
As for YQCF, the enrichment ratio is ≤ 0.25.
Then SVLH, with 4.52.
For the variant WARP, the enrichment ratio was ≤ 0.25.
Consider AYML, for which the enrichment ratio was ≤ 0.25.
Regarding NMQQ, the enrichment ratio was ≤ 0.25.
The same measure for KGPW: ≤ 0.25; for FGSE: ≤ 0.25.
With NEQV, the enrichment ratio was ≤ 0.25.
Then QRYH, with ≤ 0.25; and TMSM, with 7.07.
On to IAED, for which the enrichment ratio was ≤ 0.25.
On to STIA, for which the enrichment ratio amounted to 6.94.
FCCE: the enrichment ratio was ≤ 0.25.
Then KTKH, with ≤ 0.25; and TITH, with 1.26; and MSSG, with 0.257.
Take FCPY: the enrichment ratio is ≤ 0.25.
The same measure for NMQY: ≤ 0.25.
As to KTNW, the enrichment ratio was ≤ 0.25.
For the variant SATQ, the enrichment ratio turned out to be 10.3.
Regarding YTWV, the enrichment ratio is ≤ 0.25.
Consider KLQN, for which the enrichment ratio was ≤ 0.25.
With HHCM, the enrichment ratio was ≤ 0.25.
For the variant FAIS, the enrichment ratio is ≤ 0.25.
Then RCRC, with ≤ 0.25.
On to DHSK, for which the enrichment ratio is ≤ 0.25.
In the case of GWRF, the enrichment ratio was ≤ 0.25.
The same measure for VPLT: ≤ 0.25; for NREP: ≤ 0.25; for VWLM: ≤ 0.25.
Then FTNS, with ≤ 0.25.
As to YFTQ, the enrichment ratio is ≤ 0.25.
The same measure for KRAK: ≤ 0.25; for ILTC: 2.74.
Take SEGC: the enrichment ratio was determined as 5.53.
For the variant PAPA, the enrichment ratio is ≤ 0.25.
In the case of FHPL, the enrichment ratio is ≤ 0.25.
The same measure for RVNM: ≤ 0.25; for SKTD: ≤ 0.25; for NLAD: ≤ 0.25.
On to KEQP, for which the enrichment ratio is ≤ 0.25.
The same measure for NKLE: ≤ 0.25.
Take IVPF: the enrichment ratio is ≤ 0.25.
Take ECDG: the enrichment ratio was ≤ 0.25.
Then KSWP, with ≤ 0.25.
As to FGWC, the enrichment ratio is ≤ 0.25.
For the variant CFDS, the enrichment ratio is ≤ 0.25.
RFTW: the enrichment ratio was ≤ 0.25.
For the variant FPMT, the enrichment ratio was ≤ 0.25.
Turning to SCRK, the enrichment ratio was ≤ 0.25.
For FQKF, the enrichment ratio is ≤ 0.25.
Then WSAM, with ≤ 0.25; and MYVR, with ≤ 0.25.
The same measure for HDTW: ≤ 0.25; for NNNF: ≤ 0.25; for TPWQ: ≤ 0.25.
On to HWCD, for which the enrichment ratio was 2.96.
On to GIIT, for which the enrichment ratio was found to be 0.448.
Then EPDL, with ≤ 0.25.
Turning to HDVV, the enrichment ratio was ≤ 0.25.
LLDL: the enrichment ratio is ≤ 0.25.
As to IKFF, the enrichment ratio is ≤ 0.25.
For QTDF, the enrichment ratio worked out at 4.85.
In the case of PWSA, the enrichment ratio is ≤ 0.25.
Turning to VRIM, the enrichment ratio was ≤ 0.25.
In the case of MTLP, the enrichment ratio is ≤ 0.25.
On to KGCK, for which the enrichment ratio is ≤ 0.25.
Then MMAD, with ≤ 0.25; and GNCW, with ≤ 0.25.
In the case of RRSY, the enrichment ratio is ≤ 0.25.
The same measure for DQVS: ≤ 0.25.
On to DSNA, for which the enrichment ratio is ≤ 0.25.
On to GLLK, for which the enrichment ratio was ≤ 0.25.
Consider QHQP, for which the enrichment ratio is ≤ 0.25.
Consider RSNQ, for which the enrichment ratio was ≤ 0.25.
For IIPG, the enrichment ratio is ≤ 0.25.
Consider RQSF, for which the enrichment ratio was ≤ 0.25.
Then PFLA, with ≤ 0.25.
In the case of SATR, the enrichment ratio was ≤ 0.25.
For SNKD, the enrichment ratio is ≤ 0.25.
Then SGII, with 3.87; and DSCR, with ≤ 0.25; and GFID, with ≤ 0.25.
Consider QCCG, for which the enrichment ratio is ≤ 0.25.
With QRWE, the enrichment ratio was ≤ 0.25.
In the case of LDCC, the enrichment ratio is ≤ 0.25.
The same measure for KDCE: ≤ 0.25; for FSPM: ≤ 0.25; for TRTA: ≤ 0.25.
On to IPSL, for which the enrichment ratio is ≤ 0.25.
Take RQYQ: the enrichment ratio is ≤ 0.25.
Regarding KMRS, the enrichment ratio is ≤ 0.25.
With PQAQ, the enrichment ratio is ≤ 0.25.
With MNSN, the enrichment ratio was ≤ 0.25.
The same measure for RKMW: ≤ 0.25; for QSAM: 14.5.
As for AFST, the enrichment ratio was ≤ 0.25.
For the variant VWVD, the enrichment ratio was ≤ 0.25.
The same measure for MSWW: ≤ 0.25; for HLQQ: ≤ 0.25.
Then HRVV, with ≤ 0.25.
The same measure for PEWS: ≤ 0.25; for DYDS: ≤ 0.25; for LIKS: ≤ 0.25.
On to PPFA, for which the enrichment ratio was ≤ 0.25.
As to HWEV, the enrichment ratio is ≤ 0.25.
As to IFDR, the enrichment ratio was ≤ 0.25.
The same measure for FKWF: ≤ 0.25; for NFFV: ≤ 0.25; for AEAS: 21.3.
Regarding DYEH, the enrichment ratio is ≤ 0.25.
The same measure for YYVH: ≤ 0.25; for GMFG: ≤ 0.25; for KKSM: ≤ 0.25.
In the case of SWTM, the enrichment ratio is ≤ 0.25.
For the variant VEDH, the enrichment ratio was ≤ 0.25.
